# From the supplement of paper PMC8728848
# The list shows a part of the results.
# Columns and labels:
# Assay in all cases: glycan array binding signal (z-score within array); higher = stronger binding
# Details in all cases: glycan notation: IUPAC condensed, linker removed
# [1] = biological target: Gal(b1-3)GalNAc(b1-4)[Neu5Ac(a2-3)]Gal(b1-4)Glc
# Outline: (§1)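 From the Consortium for Functional Glycomics database, 3228 arrays were curated, keeping only those whose protein sequence was available. Binding is given as a within-array Z-score averaged across arrays sharing a protein sequence and across linkers. Negative Z-scores can be read as non-binding.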
# [2] = biological target: Gal(b1-3)GlcNAc
# Outline: as §1
# [3] = biological target: Gal(b1-3)GlcNAc(b1-2)Man(a1-3)[Gal(b1-3)GlcNAc(b1-2)Man(a1-6)]Man(b1-4)GlcNAc(b1-4)GlcNAc
# Outline: as §1
# [4] = biological target: Gal(b1-3)GlcNAc(b1-3)Gal(b1-3)GlcNAc
# Outline: as §1
# [5] = biological target: Gal(b1-3)GlcNAc(b1-3)Gal(b1-4)Glc
# Outline: as §1
# [6] = biological target: Gal(b1-3)GlcNAc(b1-3)Gal(b1-4)GlcNAc
# Outline: as §1
# [7] = biological target: Gal(b1-3)[Fuc(a1-4)]GlcNAc
# Outline: as §1
# [8] = biological target: Gal(b1-3)[Fuc(a1-4)]GlcNAc(b1-3)Gal(b1-3)[Fuc(a1-4)]GlcNAc
# Outline: as §1
# [9] = biological target: Gal(b1-3)[Fuc(a1-4)]GlcNAc(b1-3)Gal(b1-4)GlcNAc
# Outline: as §1
# [10] = biological target: Gal(b1-3)[Fuc(a1-4)]GlcNAc(b1-3)Gal(b1-4)[Fuc(a1-3)]GlcNAc
# Outline: as §1
# [11] = biological target: Gal(b1-3)[GlcNAc(b1-6)]GalNAc
# Outline: as §1
# [12] = biological target: Gal(b1-3)[Neu5Ac(a2-6)]GalNAc
# Outline: as §1
# [13] = biological target: Gal(b1-3)[Neu5Ac(a2-6)]GlcNAc(b1-6)Gal(b1-4)Glc
# Outline: as §1
# [14] = biological target: Gal(b1-3)[Neu5Ac(b2-6)]GalNAc
# Outline: as §1
# [15] = biological target: Gal(b1-4)GalNAc(a1-3)[Fuc(a1-2)]Gal(b1-4)GlcNAc
# Outline: as §1
# [16] = biological target: Gal(b1-4)GalNAc(b1-3)[Fuc(a1-2)]Gal(b1-4)GlcNAc
# Outline: as §1
# [17] = biological target: Gal(b1-4)Glc
# Outline: as §1
# [18] = biological target: Gal(b1-4)Glc6S
# Outline: as §1
# [19] = biological target: Gal(b1-4)GlcNAc
# Outline: as §1
# [20] = biological target: Gal(b1-4)GlcNAc(a1-6)Gal(b1-4)GlcNAc
# Outline: as §1
# [21] = biological target: Gal(b1-4)GlcNAc(b1-2)Man(a1-3)[Gal(b1-4)GlcNAc(b1-2)Man(a1-6)]Man(b1-4)GlcNAc(b1-4)GlcNAc
# Outline: as §1
# [22] = biological target: Gal(b1-4)GlcNAc(b1-3)Gal(b1-3)GlcNAc
# Outline: as §1
# [23] = biological target: Gal(b1-4)GlcNAc(b1-3)Gal(b1-4)Glc
# Outline: as §1
# [24] = biological target: Gal(b1-4)GlcNAc(b1-3)Gal(b1-4)GlcNAc
# Outline: as §1
# [25] = biological target: Gal(b1-4)GlcNAc(b1-3)Gal(b1-4)GlcNAc(b1-3)Gal(b1-4)GlcNAc
# Outline: as §1
# [26] = biological target: Gal(b1-4)GlcNAc(b1-3)Gal(b1-4)[Fuc(a1-3)]GlcNAc(b1-3)Gal(b1-4)[Fuc(a1-3)]GlcNAc
# Outline: as §1
# [27] = biological target: Gal(b1-4)GlcNAc(b1-3)GalNAc
# Outline: as §1
# [28] = biological target: Gal(b1-4)GlcNAc(b1-3)[Gal(b1-4)GlcNAc(b1-6)]Gal(b1-4)GlcNAc
# Outline: as §1
# [29] = biological target: Gal(b1-4)GlcNAc(b1-3)[Gal(b1-4)GlcNAc(b1-6)]GalNAc
# Outline: as §1
# [30] = biological target: Gal(b1-4)GlcNAc(b1-3)[GlcNAc(b1-6)]Gal(b1-4)GlcNAc
# Outline: as §1
# [31] = biological target: Gal(b1-4)GlcNAc(b1-6)Gal(b1-4)GlcNAc
# Outline: as §1
# [32] = biological target: Gal(b1-4)GlcNAc(b1-6)Gal(b1-4)GlcNAc(b1-6)GalNAc
# Outline: as §1
# [33] = biological target: Gal(b1-4)GlcNAc(b1-6)GalNAc
# Outline: as §1
# [34] = biological target: Gal(b1-4)GlcNAc(b1-6)[Gal(b1-3)]GalNAc
# Outline: as §1
# [35] = biological target: Gal3S(b1-3)GalNAc
# Outline: as §1
# [36] = biological target: Gal3S(b1-3)GlcNAc
# Outline: as §1
# [37] = biological target: Gal3S(b1-3)[Fuc(a1-4)]GlcNAc
# Outline: as §1
# [38] = biological target: Gal3S(b1-4)Glc
# Outline: as §1
binder,measurement,setting,value
"L-Selectin (Mus musculus), P18337 (protein) MVFPWRCEGTYWGSRNILKLWVWTLLCCDFLIHHGTHCWTYHYSEKPMNWENARKFCKQNYTDLVAIQNKREIEYLENTLPKSPYYYWIGIRKIGKMWTWVGTNKTLTKEAENWGAGEPNNKKSKEDCVEIYIKRERDSGKWNDDACHKRKAALCYTASCQPGSCNGRGECVETINNHTCICDAGYYGPQCQYVVQCEPLEAPELGTMDCIHPLGNFSFQSKCAFNCSEGRELLGTAETQCGASGNWSSPEPICQVVQCEPLEAPELGTMDCIHPLGNFSFQSKCAFNCSEGRELLGTAETQCGASGNWSSPEPICQETNRSFSKIKEGDYNPLFIPVAVMVTAFSGLAFLIWLARRLKKGKKSQERMDDPY",glycan array binding signal (z-score),[1],-0.174
same,glycan array binding signal (z-score),[2],-0.359
same,glycan array binding signal (z-score),[3],-0.539
same,glycan array binding signal (z-score),[4],-0.607
same,glycan array binding signal (z-score),[5],-0.182
same,glycan array binding signal (z-score),[6],-0.599
same,glycan array binding signal (z-score),[7],-0.418
same,glycan array binding signal (z-score),[8],-0.033
same,glycan array binding signal (z-score),[9],-0.212
same,glycan array binding signal (z-score),[10],-0.568
same,glycan array binding signal (z-score),[11],-0.235
same,glycan array binding signal (z-score),[12],-0.079
same,glycan array binding signal (z-score),[13],-0.491
same,glycan array binding signal (z-score),[14],-0.348
same,glycan array binding signal (z-score),[15],-0.466
same,glycan array binding signal (z-score),[16],-0.118
same,glycan array binding signal (z-score),[17],-0.364
same,glycan array binding signal (z-score),[18],0.961
same,glycan array binding signal (z-score),[19],-0.264
same,glycan array binding signal (z-score),[20],-0.053
same,glycan array binding signal (z-score),[21],-0.548
same,glycan array binding signal (z-score),[22],0.173
same,glycan array binding signal (z-score),[23],-0.243
same,glycan array binding signal (z-score),[24],-0.225
same,glycan array binding signal (z-score),[25],-0.574
same,glycan array binding signal (z-score),[26],0.011
same,glycan array binding signal (z-score),[27],-0.33
same,glycan array binding signal (z-score),[28],0.228
same,glycan array binding signal (z-score),[29],-0.393
same,glycan array binding signal (z-score),[30],-0.197
same,glycan array binding signal (z-score),[31],0.199
same,glycan array binding signal (z-score),[32],-0.369
same,glycan array binding signal (z-score),[33],-0.227
same,glycan array binding signal (z-score),[34],-0.389
same,glycan array binding signal (z-score),[35],-0.095
same,glycan array binding signal (z-score),[36],-0.144
same,glycan array binding signal (z-score),[37],3.61
same,glycan array binding signal (z-score),[38],0.558
